Source: paper PMC12820563, “FoxP3 forms a head-to-head dimer in vivo and stabilizes its multimerization on adjacent microsatellites”
The list shows a part of the results.

Biological target: T1, MBP-FoxP1dN (Mus musculus, UniProt P58462 326-579)
T1 sequence: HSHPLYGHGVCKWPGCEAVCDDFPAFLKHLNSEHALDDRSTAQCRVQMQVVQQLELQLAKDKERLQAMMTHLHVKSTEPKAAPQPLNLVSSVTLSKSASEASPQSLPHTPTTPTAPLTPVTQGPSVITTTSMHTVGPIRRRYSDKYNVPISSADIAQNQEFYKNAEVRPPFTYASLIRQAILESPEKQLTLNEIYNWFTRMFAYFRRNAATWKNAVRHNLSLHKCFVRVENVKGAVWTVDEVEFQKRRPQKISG
Experiment: PD-seq (MBP pull-down with sequencing); 20 mM Tris-HCl pH 7.5, 100 mM NaCl, 1.5 mM MgCl2, 0.4 uM protein, 0.1 uM dsDNA library, 30 min, room temperature, amylose pull-down; high values mean tight binding
Conditions: protein: recombinant; tags: His6-MBP; chain copies: 2; dsDNA, one strand shown
Procedure, shortened: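 Binding is the reads-per-million enrichment of pull-down relative to input, pooled across replicates. For this, 0.4 µM His6-MBP-tagged mouse FoxP3 or FoxP1 fragment lacking the N-terminus, made in E. coli, was incubated with 0.1 µM Klenow-filled double-stranded degenerate DNA library for 30 min at room temperature in Tris pH 7.5 buffer with NaCl and MgCl2. Complexes bound to amylose resin were washed three times before proteinase K released the DNA for PCR barcoding and Illumina sequencing.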

Sequence	binding signal
GATGATTGTTCTCCCAGCTGATGAATTCCATCTTTCGAGTAAACAAATTTTCCTAATCTTTCTGTTCAAGCGCCATCTAC	0.908 RPM ratio (pull-down/input)
GATGATTGTTCTCCCAGCTGATGAATTTTCAGATTCGAGTAAACAAATTTTCCTAATCTTTCTGTTCAAGCGCCATCTAC	0.839 RPM ratio (pull-down/input)
GATGATTGTTCTCCCAGCTGATGAATTTCTACTCTCGAGTAAACAAATTTTCCTAATCTTTCTGTTCAAGCGCCATCTAC	0.863 RPM ratio (pull-down/input)
GATGATTGTTCTCCCAGCTGATGAATTGGTAACATCGAGTAAACAAATTTTCCTAATCTTTCTGTTCAAGCGCCATCTAC	1.2 RPM ratio (pull-down/input)
GATGATTGTTCTCCCAGCTGATGAATTTTTCCACTCGAGTAAACAAATTTTCCTAATCTTTCTGTTCAAGCGCCATCTAC	0.905 RPM ratio (pull-down/input)
GATGATTGTTCTCCCAGCTGATGAATTTCTTGAATCGAGTAAACAAATTTTCCTAATCTTTCTGTTCAAGCGCCATCTAC	0.925 RPM ratio (pull-down/input)
GATGATTGTTCTCCCAGCTGATGAATTGGGCCATTCGAGTAAACAAATTTTCCTAATCTTTCTGTTCAAGCGCCATCTAC	0.864 RPM ratio (pull-down/input)
GATGATTGTTCTCCCAGCTGATGAATTCCACGGATCGAGTAAACAAATTTTCCTAATCTTTCTGTTCAAGCGCCATCTAC	0.756 RPM ratio (pull-down/input)
GATGATTGTTCTCCCAGCTGATGAATTTGGTTCATCGAGTAAACAAATTTTCCTAATCTTTCTGTTCAAGCGCCATCTAC	0.956 RPM ratio (pull-down/input)
GATGATTGTTCTCCCAGCTGATGAATTGTAGGAATCGAGTAAACAAATTTTCCTAATCTTTCTGTTCAAGCGCCATCTAC	1.07 RPM ratio (pull-down/input)
GATGATTGTTCTCCCAGCTGATGAATTTTACGCCTCGAGTAAACAAATTTTCCTAATCTTTCTGTTCAAGCGCCATCTAC	0.911 RPM ratio (pull-down/input)
GATGATTGTTCTCCCAGCTGATGAATTGTACATCTCGAGTAAACAAATTTTCCTAATCTTTCTGTTCAAGCGCCATCTAC	1.05 RPM ratio (pull-down/input)
GATGATTGTTCTCCCAGCTGATGAATTTATAGCCTCGAGTAAACAAATTTTCCTAATCTTTCTGTTCAAGCGCCATCTAC	0.978 RPM ratio (pull-down/input)
GATGATTGTTCTCCCAGCTGATGAATTGTGTCGATCGAGTAAACAAATTTTCCTAATCTTTCTGTTCAAGCGCCATCTAC	1.1 RPM ratio (pull-down/input)
GATGATTGTTCTCCCAGCTGATGAATTCCTCCCTTCGAGTAAACAAATTTTCCTAATCTTTCTGTTCAAGCGCCATCTAC	0.782 RPM ratio (pull-down/input)
GATGATTGTTCTCCCAGCTGATGAATTGTAGGATTCGAGTAAACAAATTTTCCTAATCTTTCTGTTCAAGCGCCATCTAC	1.02 RPM ratio (pull-down/input)

Sequence	binding signal
GATGATTGTTCTCCCAGCTGATGAATTGCTTCCGTCGAGTAAACAAATTTTCCTAATCTTTCTGTTCAAGCGCCATCTAC	1.04 RPM ratio (pull-down/input)
GATGATTGTTCTCCCAGCTGATGAATTGGCTGCTTCGAGTAAACAAATTTTCCTAATCTTTCTGTTCAAGCGCCATCTAC	0.8 RPM ratio (pull-down/input)
GATGATTGTTCTCCCAGCTGATGAATTTGTGTTATCGAGTAAACAAATTTTCCTAATCTTTCTGTTCAAGCGCCATCTAC	2.08 RPM ratio (pull-down/input)
GATGATTGTTCTCCCAGCTGATGAATTATGGTGGTCGAGTAAACAAATTTTCCTAATCTTTCTGTTCAAGCGCCATCTAC	0.999 RPM ratio (pull-down/input)
GATGATTGTTCTCCCAGCTGATGAATTCTCACATTCGAGTAAACAAATTTTCCTAATCTTTCTGTTCAAGCGCCATCTAC	0.935 RPM ratio (pull-down/input)
GATGATTGTTCTCCCAGCTGATGAATTCGTGGCATCGAGTAAACAAATTTTCCTAATCTTTCTGTTCAAGCGCCATCTAC	1.05 RPM ratio (pull-down/input)
GATGATTGTTCTCCCAGCTGATGAATTTACTATCTCGAGTAAACAAATTTTCCTAATCTTTCTGTTCAAGCGCCATCTAC	1.29 RPM ratio (pull-down/input)
GATGATTGTTCTCCCAGCTGATGAATTACTAGGATCGAGTAAACAAATTTTCCTAATCTTTCTGTTCAAGCGCCATCTAC	1.09 RPM ratio (pull-down/input)
GATGATTGTTCTCCCAGCTGATGAATTTCCCGCGTCGAGTAAACAAATTTTCCTAATCTTTCTGTTCAAGCGCCATCTAC	0.903 RPM ratio (pull-down/input)
GATGATTGTTCTCCCAGCTGATGAATTGATCCATTCGAGTAAACAAATTTTCCTAATCTTTCTGTTCAAGCGCCATCTAC	0.998 RPM ratio (pull-down/input)
GATGATTGTTCTCCCAGCTGATGAATTAAGGCTCTCGAGTAAACAAATTTTCCTAATCTTTCTGTTCAAGCGCCATCTAC	0.897 RPM ratio (pull-down/input)
GATGATTGTTCTCCCAGCTGATGAATTTATCGATTCGAGTAAACAAATTTTCCTAATCTTTCTGTTCAAGCGCCATCTAC	1.16 RPM ratio (pull-down/input)
GATGATTGTTCTCCCAGCTGATGAATTCCTTAGCTCGAGTAAACAAATTTTCCTAATCTTTCTGTTCAAGCGCCATCTAC	0.772 RPM ratio (pull-down/input)
GATGATTGTTCTCCCAGCTGATGAATTCGGTATGTCGAGTAAACAAATTTTCCTAATCTTTCTGTTCAAGCGCCATCTAC	0.927 RPM ratio (pull-down/input)
GATGATTGTTCTCCCAGCTGATGAATTACCTGATTCGAGTAAACAAATTTTCCTAATCTTTCTGTTCAAGCGCCATCTAC	1.04 RPM ratio (pull-down/input)
